Experimental data: patent US20260116960A1 (SHANGHAI HONGCHENG BIOPHARMACEUTICAL, published 2026)

Key:
[1] = molecular target: T1, human PD-1 protein (Acro, Catalog No. PD1-H5221) (human, UniProt Q15116 fragment); experiment: ELISA, plate coated with human PD-1 protein
T1 construct: Bought protein; also called human PD1-his; not shown: his tag
Protocol: ELISA was used to determine the activity of the trispecific antibodies binding to the PD-1 protein: 1 μg/mL human PD-1 protein (Acro, Catalog No.: PD1-H5221) was used to coat a high-adsorption 96-well ELISA plate and incubated at 4° C. overnight. On the next day, the plate was washed three times with PBST solution and blocked with 1% BSA-PBS solution at 37° C. for 1 hour. At the same time, 3-fold gradient dilutions of the antibody were prepared with 1% BSA-PBS solution, with a starting concentration of 10 nM. The antibodies of each gradient concentration were added to the blocked 96-well ELISA plate at 100 µL/well in triplicate and incubated at 37° C. for 1 hour. The plate was then washed three times with 0.05% PBST solution, and 100 μL/well of HRP-labeled secondary antibody (Sigma, Catalog No.: A0170) diluted at 1:5000 was added to the ELISA plate and incubated at 37° C. for 1 hour. The plate was washed three times with 0.05% PBST solution and developed with TMB. The absorbance of the 96-well ELISA plate at 450 nm was detected by an ELISA reader. The OD₄₅₀ value was fitted using a four-parameter model to calculate the EC₅₀ value of each antibody binding to PD-1.

[2] = molecular target: T2, human PD-1 on the cell surface (human, UniProt Q15116 25-288); experiment: flow cytometry, 293T-hPD-1 cells, batch FACS#1
T2 construct: whole, on cells; also called cell surface PD-1
Protocol: After centrifugation at 300 g for 5 minutes, the supernatant was discarded. The antibodies were serially diluted 3-fold with FACS buffer to obtain two gradient series solution FACS #1 and FACS #2, with the starting concentration of 200 nM (Table 5, FACS #1) or 100 nM (Table 5, FACS #2, FIG. 2), respectively. Then 100 μL/well was added to a 96-well plate in triplicate, mixed, and incubated at 4° C. for 60 min. The plate was centrifuged and washed three times with FACS buffer. 100 μL/well of 1:800 diluted AF647-anti-hIgG(H+L) (Jackson, Catalog No.: 109-605-003) was added and incubated at 4° C. for 50 minutes. After washing the plate three times with FACS buffer, 100 μL/well of FACS buffer was added to resuspend the cells, and the fluorescence signal was detected on a flow cytometer (BECKMAN COULTER cytoFLEX). The binding activity was fitted using a four-parameter model to calculate the EC₅₀ value of each antibody binding to PD-1.

[3] = molecular target: T3, human CTLA-4 on the cell surface (human, UniProt P16410 36-223); experiment: flow cytometry, CHO-hCTLA-4 cells, batch FACS#3
T3 construct: whole, on cells; also called CHO-hCTLA-4 cells; CHOK1-hCTLA4 cells

[4] = molecular target: T3, human CTLA-4 on the cell surface; experiment: flow cytometry, CHO-hCTLA-4 cells, batch FACS#4
[5] = molecular target: human PD-1 protein (Acro, PD1-H5257) (human, UniProt Q15116 fragment); experiment: competitive ELISA, PD-1 coated, biotin-PD-L1 as labelled ligand
Protocol: The next day, the plate was washed three times with PBS solution and blocked with 1% BSA-PBS solution at 37° C. for 1 hour. […] 100 μL of the antibody-protein mixture was added to each well of the blocked 96-well ELISA plate and incubated at 37° C. for 1 hour. After washing four times with PBST, 100 μL of Strep-HRP (BD, Catalog No. 554066) diluted 1:5000 was added to each well of the ELISA plate and incubated at 37° C. for 1 hour. After washing 4 times with PBST, TMB was used for color development. The absorbance at 450 nm and 630 nm was detected by a microplate reader, and OD450-OD630 was calculated. The fluorescence intensity was fitted using a four-parameter model, and the IC₅₀ value of the blocking activity of each antibody was calculated.

[6] = molecular target: T4, Biotinylated Human VEGF165 (Acro, Catalog No. VE5-H82Q0) (human, UniProt P15692-4 27-191, biotinylated (site not stated)); experiment: flow cytometry: antibody titrated on 293T-hPD-1-hCTLA-4 cells, detected with 2 ug/mL biotin-hVEGF165 and PE streptavidin
T4 construct: Bought protein; also called Biotinylated-hVEGF165; Biotin-hVEGF165
T4 sequence (looked up): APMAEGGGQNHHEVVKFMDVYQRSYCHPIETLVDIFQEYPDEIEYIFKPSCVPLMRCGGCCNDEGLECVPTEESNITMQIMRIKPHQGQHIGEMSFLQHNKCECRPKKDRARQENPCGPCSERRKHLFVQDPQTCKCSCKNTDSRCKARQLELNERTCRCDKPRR
Protocol: After centrifugation at 300 g for 5 minutes, the supernatant was discarded, and 100 μL of trispecific antibody solution serially diluted 3-fold with FACS buffer was added, with a starting concentration of 200 nM, and the same volume of FACS buffer was added as a negative control. After mixing, incubated at 4° C. for 60 minutes. After centrifugation and washing three times with FACS buffer, 2 μg/mL Biotin-hVEGF165 was added at 100 μL/well and incubated at 4° C. for 60 minutes. After centrifugation and washing three times with FACS buffer, 100 μL/well of 1:800 diluted PE Streptavidin (BD, Catalog No.: 554061) was added and incubated at 4° C. for 50 minutes. After centrifugation and washing three times with FACS buffer, 100 μL/well of FACS buffer was added to resuspend the cells, and the fluorescence signal was detected on a flow cytometer (BECKMAN COULTER cytoFLEX). The binding activity was fitted using a four-parameter model, and the EC₅₀ value of each antibody binding was calculated.

T3 sequence (P16410 36-223): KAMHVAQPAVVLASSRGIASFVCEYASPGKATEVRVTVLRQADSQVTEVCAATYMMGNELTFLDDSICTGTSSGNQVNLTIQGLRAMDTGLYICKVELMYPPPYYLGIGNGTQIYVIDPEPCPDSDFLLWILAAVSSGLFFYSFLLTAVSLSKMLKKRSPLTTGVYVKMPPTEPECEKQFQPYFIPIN

B1: HC010-F8 (trispecific antibody, human IgG4 S228P, kappa)
heavy: EVQLVESGGGLVQPGGSLRLSCAASGFTFSSYGMSWVRQAPGKCLEWVSTISGGGRDTYYPDSVKGRFTISRDNSKNTLYLQMNSLRAEDTAVYYCARQNGITWFADWGQGTLVTVSSGGGGSGGGGSGGGGSGGGGSDIQMTQSPSSLSASVGDRVTITCRASESVDNYGISFMNWYQQKPGKAPKLLIYAASNQGSGVPSRFSGSGSGTDFTLTISSLQPEDFATYYCQQSKEVPWTFGCGTKVEIKGGGGSGGGGSGGGGSGGGGSEVQLVESGGGLVQPGGSLRLSCAASGYTFTNYGMNWVRQAPGKGLEWVGWINTYTGEPTYAADFKRRFTFSLDTSKSTAYLQMNSLRAEDTAVYYCAKYPHYYGSSHWYFDVWGQGTLVTVSSASTKGPSVFPLAPCSRSTSESTAALGCLVKDYFPEPVTVSWNSGALTSGVHTFPAVLQSSGLYSLSSVVTVPSSSLGTKTYTCNVDHKPSNTKVDKRV[human IgG4 Fc with S228P (EU numbers) not spelt out]AGGGGSGGGGSGGGGSGGGGSEVQLLESGGGLVQPGGSLRLSCAASGSIFSINHMAWYRQAPGKQRELVAGVNSRGTTNYVDSVKGRFTISRDNSKNTLYLQMNSLRAEDTAVYYCRALGGAVAAWGQGTLVTVSS
light: DIQMTQSPSSLSASVGDRVTITCSASQDISNYLNWYQQKPGKAPKVLIYFTSSLHSGVPSRFSGSGSGTDFTLTISSLQPEDFATYYCQQYSTVPWTFGQGTKVEIKRTVAAPSVFIFPPSDEQLKSGTASVVCLLNNFYPREAKVQWKVDNALQSGNSQESVTEQDSKDSTYSLSSTLTLSKADYEKHKVYACEVTHQGLSSPVTKSFNRGEC
notes: light: bevacizumab VL-kappa; also called H010-F8
- EC50 [1]: 0.08 nM
- EC50 [2]: 2.39 nM
- EC50 [3]: 4.92 nM
- EC50 [4]: 4.29 nM
- IC50 [5]: 0.782 nM
- EC50 [6]: 5.06 nM
